# Experimental data taken from the supplement of paper PMC8728848.
# This is one part of the list.
# What was measured:
# Experiment in all cases: glycan array binding signal (z-score within array); higher = stronger binding
# Conditions in all cases: glycan notation: IUPAC condensed, linker removed
# [1] = target: Fuc(a1-3)[Gal3S(b1-4)]GlcNAc6S
# In short: (§1)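 The binding signal is a Z-score computed within each array and averaged over linkers. Arrays of the same protein sequence at different concentrations or buffers were also averaged together. Data originate from 3228 arrays in the Consortium for Functional Glycomics database, kept only where the protein sequence was available.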
# [2] = target: Fuc(a1-3)[GalNAc(b1-4)]GlcNAc
# In short: as §1
# [3] = target: Fuc(a1-3)[GalNAc(b1-4)]GlcNAc6S
# In short: as §1
# [4] = target: Fuc(a1-4)GlcNAc
# In short: as §1
# [5] = target: Fuc(b1-3)GlcNAc
# In short: as §1
# [6] = target: Gal(a1-2)Gal
# In short: as §1
# [7] = target: Gal(a1-3)Gal
# In short: as §1
# [8] = target: Gal(a1-3)Gal(b1-3)GlcNAc
# In short: as §1
# [9] = target: Gal(a1-3)Gal(b1-3)GlcNAc(b1-2)Man
# In short: as §1
# [10] = target: Gal(a1-3)Gal(b1-3)GlcNAc(b1-2)Man(a1-3)[Gal(a1-3)Gal(b1-3)GlcNAc(b1-2)Man(a1-6)]Man(b1-4)GlcNAc(b1-4)GlcNAc
# In short: as §1
# [11] = target: Gal(a1-3)Gal(b1-3)GlcNAc(b1-3)GalNAc
# In short: as §1
# [12] = target: Gal(a1-3)Gal(b1-3)GlcNAc(b1-6)GalNAc
# In short: as §1
# [13] = target: Gal(a1-3)Gal(b1-3)[Fuc(a1-4)]GlcNAc(b1-2)Man(a1-3)[Gal(a1-3)Gal(b1-3)[Fuc(a1-4)]GlcNAc(b1-2)Man(a1-6)]Man(b1-4)GlcNAc(b1-4)GlcNAc
# In short: as §1
# [14] = target: Gal(a1-3)Gal(b1-4)Glc
# In short: as §1
# [15] = target: Gal(a1-3)Gal(b1-4)GlcNAc
# In short: as §1
# [16] = target: Gal(a1-3)Gal(b1-4)GlcNAc(b1-2)Man
# In short: as §1
# [17] = target: Gal(a1-3)Gal(b1-4)GlcNAc(b1-2)Man(a1-3)[Gal(a1-3)Gal(b1-4)GlcNAc(b1-2)Man(a1-6)]Man(b1-4)GlcNAc(b1-4)GlcNAc
# In short: as §1
# [18] = target: Gal(a1-3)Gal(b1-4)GlcNAc(b1-3)GalNAc
# In short: as §1
# [19] = target: Gal(a1-3)Gal(b1-4)GlcNAc(b1-6)GalNAc
# In short: as §1
# [20] = target: Gal(a1-3)Gal(b1-4)[Fuc(a1-3)]GlcNAc
# In short: as §1
# [21] = target: Gal(a1-3)Gal(b1-4)[Fuc(a1-3)]GlcNAc(b1-2)Man(a1-3)[Gal(a1-3)Gal(b1-4)[Fuc(a1-3)]GlcNAc(b1-2)Man(a1-6)]Man(b1-4)GlcNAc(b1-4)GlcNAc
# In short: as §1
# [22] = target: Gal(a1-3)GalNAc
# In short: as §1
# [23] = target: Gal(a1-3)[Gal(a1-4)]Gal(b1-4)GlcNAc
# In short: as §1
# [24] = target: Gal(a1-4)Gal(b1-3)GlcNAc(b1-2)Man(a1-3)[Gal(a1-4)Gal(b1-3)GlcNAc(b1-2)Man(a1-6)]Man(b1-4)GlcNAc(b1-4)GlcNAc
# In short: as §1
# [25] = target: Gal(a1-4)Gal(b1-4)Glc
# In short: as §1
# [26] = target: Gal(a1-4)Gal(b1-4)GlcNAc
# In short: as §1
# [27] = target: Gal(a1-4)Gal(b1-4)GlcNAc(b1-2)Man(a1-3)[Gal(a1-4)Gal(b1-4)GlcNAc(b1-2)Man(a1-6)]Man(b1-4)GlcNAc(b1-4)GlcNAc
# In short: as §1
# [28] = target: Gal(a1-4)Gal(b1-4)GlcNAc(b1-3)Gal(b1-4)Glc
# In short: as §1
# [29] = target: Gal(a1-4)GlcNAc
# In short: as §1
# [30] = target: Gal(a1-6)Glc
# In short: as §1
# [31] = target: Gal(b1-2)Gal
# In short: as §1
# [32] = target: Gal(b1-3)Gal
# In short: as §1
# [33] = target: Gal(b1-3)Gal(b1-4)GlcNAc
# In short: as §1
# [34] = target: Gal(b1-3)GalNAc
# In short: as §1
# [35] = target: Gal(b1-3)GalNAc(a1-3)[Fuc(a1-2)]Gal(b1-4)Glc
# In short: as §1
# [36] = target: Gal(b1-3)GalNAc(a1-3)[Fuc(a1-2)]Gal(b1-4)GlcNAc
# In short: as §1
# [37] = target: Gal(b1-3)GalNAc(b1-3)Gal
# In short: as §1
# [38] = target: Gal(b1-3)GalNAc(b1-3)Gal(a1-4)Gal(b1-4)Glc
# In short: as §1
# [39] = target: Gal(b1-3)GalNAc(b1-4)Gal(b1-4)Glc
# In short: as §1
# [40] = target: Gal(b1-3)GalNAc(b1-4)[Neu5Ac(a2-3)]Gal(b1-4)Glc
# In short: as §1
# [41] = target: Gal(b1-3)GlcNAc
# In short: as §1
# [42] = target: Gal(b1-3)GlcNAc(a1-3)Gal(b1-4)GlcNAc
# In short: as §1
# [43] = target: Gal(b1-3)GlcNAc(a1-6)Gal(b1-4)GlcNAc
# In short: as §1
# [44] = target: Gal(b1-3)GlcNAc(b1-2)Man
# In short: as §1
# [45] = target: Gal(b1-3)GlcNAc(b1-2)Man(a1-3)[Gal(b1-3)GlcNAc(b1-2)Man(a1-6)]Man(b1-4)GlcNAc(b1-4)GlcNAc
# In short: as §1
binder,measurement,setting,value
EULS2 M2 (Oryza sativa) (protein) MVYCRANPNYAMTARNGAVVLAPANPKDEYQHWIKDMRWSTSIKDEEGYPAFALVNKATGQAIKHSLGQSHPVRLVPYNPEVMDESVLWTESRDVGNGFRCIRMVNNIYLNFDAFHGDKYHGGVRDGTDIVLWKLCEGDSQRWKIQPYYILEQKLISEEDLNSAVDHHHHHH,glycan array binding signal (z-score),[1],0.046
same,glycan array binding signal (z-score),[2],-0.453
same,glycan array binding signal (z-score),[3],-0.107
same,glycan array binding signal (z-score),[4],-0.415
same,glycan array binding signal (z-score),[5],0.166
same,glycan array binding signal (z-score),[6],-0.374
same,glycan array binding signal (z-score),[7],0.006
same,glycan array binding signal (z-score),[8],6.13
same,glycan array binding signal (z-score),[9],-0.595
same,glycan array binding signal (z-score),[10],-0.109
same,glycan array binding signal (z-score),[11],-0.646
same,glycan array binding signal (z-score),[12],-0.204
same,glycan array binding signal (z-score),[13],0.228
same,glycan array binding signal (z-score),[14],0.101
same,glycan array binding signal (z-score),[15],-0.456
same,glycan array binding signal (z-score),[16],-0.469
same,glycan array binding signal (z-score),[17],0.58
same,glycan array binding signal (z-score),[18],-0.627
same,glycan array binding signal (z-score),[19],-0.571
same,glycan array binding signal (z-score),[20],-0.444
same,glycan array binding signal (z-score),[21],-0.327
same,glycan array binding signal (z-score),[22],-0.346
same,glycan array binding signal (z-score),[23],-0.638
same,glycan array binding signal (z-score),[24],-0.056
same,glycan array binding signal (z-score),[25],-0.552
same,glycan array binding signal (z-score),[26],-0.566
same,glycan array binding signal (z-score),[27],0.344
same,glycan array binding signal (z-score),[28],0.128
same,glycan array binding signal (z-score),[29],-0.332
same,glycan array binding signal (z-score),[30],0.292
same,glycan array binding signal (z-score),[31],-0.134
same,glycan array binding signal (z-score),[32],-0.312
same,glycan array binding signal (z-score),[33],-0.911
same,glycan array binding signal (z-score),[34],-0.041
same,glycan array binding signal (z-score),[35],0.005
same,glycan array binding signal (z-score),[36],-0.262
same,glycan array binding signal (z-score),[37],-0.267
same,glycan array binding signal (z-score),[38],-0.297
same,glycan array binding signal (z-score),[39],-0.124
same,glycan array binding signal (z-score),[40],-0.353
same,glycan array binding signal (z-score),[41],-0.454
same,glycan array binding signal (z-score),[42],-0.333
same,glycan array binding signal (z-score),[43],-0.436
same,glycan array binding signal (z-score),[44],0.177
same,glycan array binding signal (z-score),[45],0.061
